In the supplement of paper PMC10369915 one finds enrichment score data, which are given here for 18 molecules.

This is one part of the list. Cut-off read from the data, not from the text of the source: active = 3.2 or more and inactive = the rest. Most of these values are background signal.
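Note: displayed peptides selected on beads carrying the immobilized SH2 domain, with library peptides lacking any tyrosine serving as negative controls.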

For the first experiment, the target named is SHP2 C-SH2 domain E139D. Kind of experiment: enrichment score (SH2-bound / input frequency) (ratio); bacterial display of known human phosphotyrosine sites (pTyr-Var adds point mutants) read by sequencing; higher = stronger binding; tyrosines were phosphorylated by kinases first. Particulars: peptide library: Human pTyr.
ILEEEKIYAYPSNIT [TM192_HUMAN_213]: the enrichment score is inactive: 0.852.
Turning to KGRFAEVYKAKLKQN [TGFBR2_HUMAN_259], the enrichment score is inactive: 2.35.
As for AVTTEAIYEEIDAHQ [TM1L1_HUMAN_460], the enrichment score is inactive: 1.18.
For the molecule EQFEAAAYIIHAAKD [TLR3_HUMAN_759_YA], the enrichment score is inactive: 0.667.
On the same count and under the same terms, under IRRRSSNYRAYATEP [TNNI3_HUMAN_26] stands inactive: 0.755; under FGGEPLSYTRFSLAR [TFR1_HUMAN_20], inactive: 0.991.
In the case of AAAERPKYTFDFSEE [TOP2B_HUMAN_1370], the enrichment score is inactive: 1.82.
As for GQVGTARYMAPEVLE [TGFBR2_HUMAN_424], the enrichment score was inactive: 0.722.
Same read-out and setting: for AIDSLLNYETVKYFN [ABCB7_HUMAN_340] the value was inactive: 0.684; for GEEADAVYESMAHLS [BCAP_HUMAN_419], inactive: 0.988.
In the case of EQIIQEIYSQIQSKK [TKT_HUMAN_275], the enrichment score is inactive: 1.08.
On the same count and under the same terms, under SSRWSKDYDVCVCHS [TIRAP_HUMAN_86] stands inactive: 1.48; under VVGSLSQYQLMKHQS [TLR5_HUMAN_798], inactive: 0.865; under NSPGNAFYSNVLARP [TMIG2_HUMAN_192_YA], inactive: 0.653.
In the case of FLEEIPDYKLNHALC [TLR3_HUMAN_858], the enrichment score is inactive: 1.06.
On to SGDKDHLYSTVCKPR [TGFI1_HUMAN_60], for which the enrichment score is inactive: 1.13.
Take SKAQQGLYQVPGPSP [BCAR1_HUMAN_128]: the enrichment score is inactive: 0.788.
Regarding KGCSNEPYFGSLTAL [TNS3_HUMAN_1256], the enrichment score was inactive: 1.2.

In a further experiment the target is SHP2 C-SH2 domain wild-type. Described as above. As to conditions: peptide library: Human pTyr.
For ILEEEKIYAYPSNIT [TM192_HUMAN_213], the enrichment score is inactive: 0.771.
On the same count and under the same terms, for KGRFAEVYKAKLKQN [TGFBR2_HUMAN_259] the value was inactive: 3.1; for AVTTEAIYEEIDAHQ [TM1L1_HUMAN_460], inactive: 1.01; for EQFEAAAYIIHAAKD [TLR3_HUMAN_759_YA], inactive: 0.61.
Still for that read-out and setting: under IRRRSSNYRAYATEP [TNNI3_HUMAN_26] stands inactive: 0.641.
Same read-out and setting: for FGGEPLSYTRFSLAR [TFR1_HUMAN_20] the value was inactive: 0.772; for AAAERPKYTFDFSEE [TOP2B_HUMAN_1370], inactive: 0.936.
For the molecule GQVGTARYMAPEVLE [TGFBR2_HUMAN_424], the enrichment score was inactive: 0.602.
As for AIDSLLNYETVKYFN [ABCB7_HUMAN_340], the enrichment score is inactive: 0.883.
As to GEEADAVYESMAHLS [BCAP_HUMAN_419], the enrichment score is inactive: 0.832.
Still for that read-out and setting: under EQIIQEIYSQIQSKK [TKT_HUMAN_275] stands inactive: 0.941; under SSRWSKDYDVCVCHS [TIRAP_HUMAN_86], inactive: 1.25; under VVGSLSQYQLMKHQS [TLR5_HUMAN_798], inactive: 0.671.
For NSPGNAFYSNVLARP [TMIG2_HUMAN_192_YA], the enrichment score was inactive: 1.06.
As to FLEEIPDYKLNHALC [TLR3_HUMAN_858], the enrichment score is inactive: 1.15.
On the same count and under the same terms, for SGDKDHLYSTVCKPR [TGFI1_HUMAN_60] the value was inactive: 1.05; for SKAQQGLYQVPGPSP [BCAR1_HUMAN_128], inactive: 0.56; for KGCSNEPYFGSLTAL [TNS3_HUMAN_1256], inactive: 1.07.

A further experiment addresses SHP2 N-SH2 domain L43F. Described as above. As to conditions: peptide library: Human pTyr.
In the case of ILEEEKIYAYPSNIT [TM192_HUMAN_213], the enrichment score was inactive: 0.864.
Consider KGRFAEVYKAKLKQN [TGFBR2_HUMAN_259], for which the enrichment score is inactive: 2.19.
On the same count and under the same terms, for AVTTEAIYEEIDAHQ [TM1L1_HUMAN_460] the value was inactive: 1.15.
Regarding EQFEAAAYIIHAAKD [TLR3_HUMAN_759_YA], the enrichment score was inactive: 0.84.
Regarding IRRRSSNYRAYATEP [TNNI3_HUMAN_26], the enrichment score was inactive: 0.588.
As for FGGEPLSYTRFSLAR [TFR1_HUMAN_20], the enrichment score was inactive: 0.84.
The same measure, in the same setting: for AAAERPKYTFDFSEE [TOP2B_HUMAN_1370] the value was inactive: 0.918; for GQVGTARYMAPEVLE [TGFBR2_HUMAN_424], inactive: 0.69; for AIDSLLNYETVKYFN [ABCB7_HUMAN_340], inactive: 0.857.
Same read-out and setting: under GEEADAVYESMAHLS [BCAP_HUMAN_419] stands inactive: 0.958.
As for EQIIQEIYSQIQSKK [TKT_HUMAN_275], the enrichment score was inactive: 1.28.
For the molecule SSRWSKDYDVCVCHS [TIRAP_HUMAN_86], the enrichment score is inactive: 1.24.
VVGSLSQYQLMKHQS [TLR5_HUMAN_798]: the enrichment score is inactive: 0.901.
Same read-out and setting: under NSPGNAFYSNVLARP [TMIG2_HUMAN_192_YA] stands inactive: 0.615.
Turning to FLEEIPDYKLNHALC [TLR3_HUMAN_858], the enrichment score is inactive: 0.847.
With SGDKDHLYSTVCKPR [TGFI1_HUMAN_60], the enrichment score is inactive: 1.01.
Regarding SKAQQGLYQVPGPSP [BCAR1_HUMAN_128], the enrichment score was inactive: 0.65.
The same measure, in the same setting: for KGCSNEPYFGSLTAL [TNS3_HUMAN_1256] the value was inactive: 1.03.

In a further experiment the target is SHP2 N-SH2 domain T42A. The description is as above. Particulars: peptide library: Human pTyr.
For ILEEEKIYAYPSNIT [TM192_HUMAN_213], the enrichment score was inactive: 0.502.
As for KGRFAEVYKAKLKQN [TGFBR2_HUMAN_259], the enrichment score was inactive: 2.92.
The same measure, in the same setting: under AVTTEAIYEEIDAHQ [TM1L1_HUMAN_460] stands inactive: 0.98; under EQFEAAAYIIHAAKD [TLR3_HUMAN_759_YA], inactive: 0.557; under IRRRSSNYRAYATEP [TNNI3_HUMAN_26], inactive: 0.85.
As for FGGEPLSYTRFSLAR [TFR1_HUMAN_20], the enrichment score was inactive: 0.708.
As to AAAERPKYTFDFSEE [TOP2B_HUMAN_1370], the enrichment score was inactive: 1.06.
Consider GQVGTARYMAPEVLE [TGFBR2_HUMAN_424], for which the enrichment score is inactive: 0.616.
Same read-out and setting: under AIDSLLNYETVKYFN [ABCB7_HUMAN_340] stands inactive: 0.776; under GEEADAVYESMAHLS [BCAP_HUMAN_419], inactive: 0.776; under EQIIQEIYSQIQSKK [TKT_HUMAN_275], inactive: 1.21.
With SSRWSKDYDVCVCHS [TIRAP_HUMAN_86], the enrichment score was inactive: 1.31.
With VVGSLSQYQLMKHQS [TLR5_HUMAN_798], the enrichment score was inactive: 0.722.
Consider NSPGNAFYSNVLARP [TMIG2_HUMAN_192_YA], for which the enrichment score was inactive: 0.62.
Consider FLEEIPDYKLNHALC [TLR3_HUMAN_858], for which the enrichment score was inactive: 1.05.
For SGDKDHLYSTVCKPR [TGFI1_HUMAN_60], the enrichment score was inactive: 1.03.
Take SKAQQGLYQVPGPSP [BCAR1_HUMAN_128]: the enrichment score is inactive: 0.617.
As to KGCSNEPYFGSLTAL [TNS3_HUMAN_1256], the enrichment score is inactive: 1.17.

Another experiment concerns the target SHP2 N-SH2 domain T52S. The description is as above. As to conditions: peptide library: Human pTyr.
Take ILEEEKIYAYPSNIT [TM192_HUMAN_213]: the enrichment score is inactive: 0.815.
As to KGRFAEVYKAKLKQN [TGFBR2_HUMAN_259], the enrichment score was inactive: 2.54.
On the same count and under the same terms, under AVTTEAIYEEIDAHQ [TM1L1_HUMAN_460] stands inactive: 0.949.
In the case of EQFEAAAYIIHAAKD [TLR3_HUMAN_759_YA], the enrichment score was inactive: 0.827.
Same read-out and setting: for IRRRSSNYRAYATEP [TNNI3_HUMAN_26] the value was inactive: 0.895.
Take FGGEPLSYTRFSLAR [TFR1_HUMAN_20]: the enrichment score was inactive: 0.847.
Same read-out and setting: for AAAERPKYTFDFSEE [TOP2B_HUMAN_1370] the value was inactive: 0.949.
For the molecule GQVGTARYMAPEVLE [TGFBR2_HUMAN_424], the enrichment score was inactive: 0.764.
Same read-out and setting: for AIDSLLNYETVKYFN [ABCB7_HUMAN_340] the value was inactive: 0.837.
Still for that read-out and setting: under GEEADAVYESMAHLS [BCAP_HUMAN_419] stands inactive: 0.978; under EQIIQEIYSQIQSKK [TKT_HUMAN_275], inactive: 0.763; under SSRWSKDYDVCVCHS [TIRAP_HUMAN_86], inactive: 1.46.
Take VVGSLSQYQLMKHQS [TLR5_HUMAN_798]: the enrichment score was inactive: 0.687.
With NSPGNAFYSNVLARP [TMIG2_HUMAN_192_YA], the enrichment score is inactive: 0.562.
Still for that read-out and setting: under FLEEIPDYKLNHALC [TLR3_HUMAN_858] stands inactive: 1.15; under SGDKDHLYSTVCKPR [TGFI1_HUMAN_60], inactive: 1.31; under SKAQQGLYQVPGPSP [BCAR1_HUMAN_128], inactive: 0.865.
Regarding KGCSNEPYFGSLTAL [TNS3_HUMAN_1256], the enrichment score is inactive: 1.34.

A further experiment concerns the target SHP2 N-SH2 domain wild-type. The description is as above. As to conditions: peptide library: Human pTyr.
ILEEEKIYAYPSNIT [TM192_HUMAN_213]: the enrichment score was inactive: 0.99.
In the case of KGRFAEVYKAKLKQN [TGFBR2_HUMAN_259], the enrichment score was active: 3.4.
AVTTEAIYEEIDAHQ [TM1L1_HUMAN_460]: the enrichment score was inactive: 1.04.
Still for that read-out and setting: for EQFEAAAYIIHAAKD [TLR3_HUMAN_759_YA] the value was inactive: 0.859.
On to IRRRSSNYRAYATEP [TNNI3_HUMAN_26], for which the enrichment score was inactive: 0.731.
As to FGGEPLSYTRFSLAR [TFR1_HUMAN_20], the enrichment score is inactive: 0.876.
With AAAERPKYTFDFSEE [TOP2B_HUMAN_1370], the enrichment score was inactive: 1.19.
Turning to GQVGTARYMAPEVLE [TGFBR2_HUMAN_424], the enrichment score was inactive: 0.733.
On the same count and under the same terms, under AIDSLLNYETVKYFN [ABCB7_HUMAN_340] stands inactive: 0.774; under GEEADAVYESMAHLS [BCAP_HUMAN_419], inactive: 1.06; under EQIIQEIYSQIQSKK [TKT_HUMAN_275], inactive: 0.966.
Take SSRWSKDYDVCVCHS [TIRAP_HUMAN_86]: the enrichment score was inactive: 1.61.
Turning to VVGSLSQYQLMKHQS [TLR5_HUMAN_798], the enrichment score is inactive: 0.804.
In the case of NSPGNAFYSNVLARP [TMIG2_HUMAN_192_YA], the enrichment score was inactive: 0.618.
As for FLEEIPDYKLNHALC [TLR3_HUMAN_858], the enrichment score is inactive: 0.738.
In the case of SGDKDHLYSTVCKPR [TGFI1_HUMAN_60], the enrichment score is inactive: 1.03.
SKAQQGLYQVPGPSP [BCAR1_HUMAN_128]: the enrichment score was inactive: 0.687.
Take KGCSNEPYFGSLTAL [TNS3_HUMAN_1256]: the enrichment score is inactive: 1.55.
